Whole data set: some 33,000 sequences, median “E-score (-0.5 to 0.5)” near -0.01, cut for the highest 2% near 0.26. The list shows a part of the results.
Each sequence was assayed against Ste12 (UniProt P13574) (assay: PBM E-score (8-mer binding enrichment) (E-score (-0.5 to 0.5)); higher = stronger / more preferred TF binding; most listed sequences are background and not binding sites). Settings: protein concentration: 200 nM; construct: GST-DNA-binding domain.
Method in brief: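 Each ungapped eight-base word and its reverse complement, pooled, received an E-score from the Universal PBM Analysis Suite. Underlying scans, normalised with masliner, recorded fluorescent anti-GST bound to GST-tagged yeast transcription factors. These were applied at about 100-200 nM to universal all-10-mer Agilent arrays double-stranded by primer extension.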

Point of comparison: CCGGCGCA, “PBM E-score” value 0.0234. Against it:
- CATGATAC — higher, 0.242
- ATTTTTTC — higher, 0.252
- ATATACTG — higher, 0.0976
- AGGCAAGC — lower, -0.0733
- CCCGTCGA — lower, 0.0198
- GATAAAAA — higher, 0.277
- AAAGTGTC — lower, -0.105
- ACTATGGA — lower, -0.0706
- AATTTTGA — higher, 0.145
- GATCAGTA — lower, -0.144
- CCAAGGAA — lower, -0.12
- AGACTTTG — lower, -0.156
- AGGGGGGG — lower, -0.276
- ACTGCTAG — lower, -0.23
- CTCGTGTA — higher, 0.0556
- GCGATCGC — higher, 0.209
- GGAGGTAA — higher, 0.0954
- ATGTGTAG — higher, 0.0503
- ACCTCATA — lower, -0.0725
- AGAGCTCA — lower, -0.194
- CTCATAAA — lower, -0.00236
- ATACCTGA — higher, 0.0692
- CCTAGACA — lower, -0.279
- CGATTTGC — lower, 0.0114
- ATCTAGAG — lower, -0.128
- ATCTATGA — higher, 0.107
- AGGCCCCG — lower, -0.19
- AGTGCAAT — higher, 0.0425
- CCTCGCGC — lower, -0.0844
- CGAAACTA — higher, 0.091
- GGTCATGA — lower, -0.0542
- CAGGTGAC — lower, -0.0206
- CGGTCCTC — lower, -0.0996
- CAAGACAC — higher, 0.0922
- CGTACTCA — lower, -0.00582
- CGCGACGC — higher, 0.115
- TCAAGCGA — higher, 0.156
- ATTGGTCG — lower, -0.124
- GGGACAGA — lower, -0.0252
- GATTACAA — higher, 0.025
- CCCCCCAG — lower, -0.309
- CGCTGTGA — lower, -0.0234
- AGCCGGTA — lower, -0.0538
- ACAATGAA — higher, 0.145
- GGCTTGAC — lower, -0.188
- AAACGATA — higher, 0.279
- ATTTTAGG — higher, 0.198
- ATGGGAAG — lower, -0.0232
- AACTTGTG — higher, 0.168
- AGAATCTA — lower, 0.00504
- CGTCCAAA — higher, 0.22
- ATTAATTG — higher, 0.237
- ACGTTCCC — lower, -0.37
- CCAATAGC — lower, -0.207
- CTGGACAG — lower, -0.143
- CACACCTC — higher, 0.0822
- AATGAGGA — lower, -0.073
- ACAGCATC — lower, -0.0671
- ATATGTTA — lower, -0.0206
- TACCCTGA — lower, -0.148
- CTGACGAC — lower, -0.219
- CTTGCAAG — higher, 0.225
- ATAGCGTA — higher, 0.0271
- AGACGCGA — lower, -0.0188
- CTTGCGTA — lower, -0.214
- ACATCCCG — lower, 0.0117
- AAACACAA — higher, 0.291
- ACACGCCG — higher, 0.132
- GTGCCCGA — lower, -0.158
- AAGTACTG — lower, -0.151
- AGCAAGAC — higher, 0.0279
- ACTTGTCA — lower, -0.0229
- CGGAGGAC — lower, -0.0846
- AACGGGTA — higher, 0.161
- AAAAGTAG — higher, 0.134
- CACCGACA — lower, -0.0645
- AGAGTGAG — lower, -0.00606
- CTGCCACA — lower, -0.0728
- CGCAAATC — higher, 0.152
- AAGCCTGT — lower, -0.0204
- CGACTGTC — lower, -0.0965
- CGCCGCAC — lower, -1e-05
- CGCGCCCG — lower, -0.0271
- ACGCTCAA — higher, 0.0259
- AGCACAAG — lower, -0.0936

Reference: the supplement of paper PMC3334620
